{
  "source": "paper PMC4336329",
  "about": "(PLoS ONE, 2015)",
  "note": "Out of some 310,000 compounds screened, about 14,000 (4.5%) showed an effect of 50% or more. The effect is printed as a negative number. Some of the results follow.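 Note: peak tail current of the secondary pulse compared with the same well before compound.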",
  "data": [
    {"biological_target": "human ether-à-go-go-related gene (hERG) potassium channel (human, UniProt Q12809)", "sequence (Q12809 whole entry, looked up)": "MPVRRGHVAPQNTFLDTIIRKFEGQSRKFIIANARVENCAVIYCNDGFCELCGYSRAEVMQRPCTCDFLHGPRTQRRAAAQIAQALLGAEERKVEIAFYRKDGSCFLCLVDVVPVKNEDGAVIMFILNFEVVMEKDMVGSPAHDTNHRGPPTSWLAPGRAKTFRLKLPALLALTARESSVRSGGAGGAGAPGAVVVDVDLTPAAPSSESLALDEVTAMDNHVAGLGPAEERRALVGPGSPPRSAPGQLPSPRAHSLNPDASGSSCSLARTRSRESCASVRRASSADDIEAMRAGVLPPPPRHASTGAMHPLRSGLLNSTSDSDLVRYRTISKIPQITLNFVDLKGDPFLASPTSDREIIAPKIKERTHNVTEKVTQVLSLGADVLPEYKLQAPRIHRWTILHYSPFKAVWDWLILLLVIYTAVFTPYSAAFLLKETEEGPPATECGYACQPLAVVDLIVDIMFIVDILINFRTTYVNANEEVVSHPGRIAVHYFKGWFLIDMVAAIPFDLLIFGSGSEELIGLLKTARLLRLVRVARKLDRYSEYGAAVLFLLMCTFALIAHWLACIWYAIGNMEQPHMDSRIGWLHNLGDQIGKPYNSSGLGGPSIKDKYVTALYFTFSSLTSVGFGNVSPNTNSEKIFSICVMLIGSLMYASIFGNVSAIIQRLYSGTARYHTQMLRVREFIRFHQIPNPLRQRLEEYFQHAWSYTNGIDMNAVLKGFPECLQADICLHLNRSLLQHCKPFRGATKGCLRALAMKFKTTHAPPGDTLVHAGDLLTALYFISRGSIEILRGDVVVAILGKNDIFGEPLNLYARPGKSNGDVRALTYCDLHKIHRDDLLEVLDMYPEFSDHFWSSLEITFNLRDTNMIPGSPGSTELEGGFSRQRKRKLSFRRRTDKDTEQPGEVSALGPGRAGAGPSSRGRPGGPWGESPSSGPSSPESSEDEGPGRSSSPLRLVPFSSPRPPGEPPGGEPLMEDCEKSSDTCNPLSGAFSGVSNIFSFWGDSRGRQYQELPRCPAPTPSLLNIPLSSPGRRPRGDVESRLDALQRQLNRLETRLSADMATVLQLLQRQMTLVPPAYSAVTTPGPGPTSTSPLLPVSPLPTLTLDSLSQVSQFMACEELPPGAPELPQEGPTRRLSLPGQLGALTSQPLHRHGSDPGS", "assay": "primary screen, population patch clamp on CHO cells stably expressing hERG", "units": {"hERG current change (%, negative = inhibition) at 10uM": "%"}, "values": [
      {"smiles": "COc1ccccc1CNC(=O)C1CCN(S(=O)(=O)c2cccc3cccnc23)CC1", "hERG current change (%, negative = inhibition) at 10uM": -9.39},
      {"smiles": "COc1ccc(-c2sc3cc4c(cc3c2C#CC2(N)CCCCC2)OCO4)cc1", "hERG current change (%, negative = inhibition) at 10uM": 24},
      {"smiles": "O=C(Cc1ccc(Cl)cc1)NC1CCCCCC1", "hERG current change (%, negative = inhibition) at 10uM": -3.09},
      {"smiles": "Cc1ccc(C(=O)CC2(O)C(=O)N(Cc3ccc4c(c3)OCO4)c3ccccc32)cc1", "note": "(stereo not drawn)", "hERG current change (%, negative = inhibition) at 10uM": -1.01},
      {"smiles": "CCCc1[nH]nc2c1C(c1ccccc1OCC)C(C#N)=C(N)O2", "note": "(stereo not drawn)", "hERG current change (%, negative = inhibition) at 10uM": 10.7},
      {"smiles": "COc1ccc(/C=C(/NC(=O)c2cccc([N+](=O)[O-])c2)C(=O)O)cc1", "hERG current change (%, negative = inhibition) at 10uM": 9.84},
      {"smiles": "CCC(=O)Nc1sc2c(c1C#N)CCC2", "hERG current change (%, negative = inhibition) at 10uM": 9.08},
      {"smiles": "COc1ccc(-c2cn(CCC(=O)NCc3ccc(C)cc3)c(-c3ccncc3)n2)cc1", "hERG current change (%, negative = inhibition) at 10uM": -21.3},
      {"smiles": "Cn1c(N)c(S(=O)(=O)N2CCCC2)c(=O)n(C)c1=O", "hERG current change (%, negative = inhibition) at 10uM": 26.2},
      {"smiles": "COc1cccc(C(=O)Nc2cc(C)on2)c1OC", "hERG current change (%, negative = inhibition) at 10uM": 7.5},
      {"smiles": "Cn1c(SCc2cccc(F)c2)nnc1-c1ccccn1", "hERG current change (%, negative = inhibition) at 10uM": -8.27},
      {"smiles": "Cc1sc(NC(=S)NC(=O)c2cccs2)nc1-c1ccc(C(C)C)cc1", "hERG current change (%, negative = inhibition) at 10uM": 13.9},
      {"smiles": "Cn1c(=O)c([N+](=O)[O-])c(NCc2ccccc2)c2ccccc21", "hERG current change (%, negative = inhibition) at 10uM": 9.94},
      {"smiles": "COCc1cc(CN2CCN(CCCc3ccccc3)C(CCO)C2)ccc1OC", "note": "(stereo not drawn)", "hERG current change (%, negative = inhibition) at 10uM": -66.1},
      {"smiles": "Cc1cccc(Oc2ccc(NC(=O)C3=CC=CN4CCS(=O)(=O)N=C34)cc2)c1", "hERG current change (%, negative = inhibition) at 10uM": 8.71},
      {"smiles": "CCCC(=O)Nc1nnc(SCC(=O)N2CCN(c3ccccc3)CC2)s1", "hERG current change (%, negative = inhibition) at 10uM": 24.5},
      {"smiles": "COc1ccccc1C(=O)Oc1ccc(N2C(=O)CCC2=O)cc1", "hERG current change (%, negative = inhibition) at 10uM": -0.543},
      {"smiles": "C/C=C\\C(=O)Nc1cccc(C2=NOC3(C2)C[C@H](C(N)=O)N(C(=O)[C@H]2CCC(=O)N2)C3)c1", "note": "(stereo partly drawn)", "hERG current change (%, negative = inhibition) at 10uM": -7.15},
      {"smiles": "Cn1ncc(N=Cc2c(O)ccc3ccccc23)c1C(=O)Nc1cccc(Cl)c1", "hERG current change (%, negative = inhibition) at 10uM": 18.9},
      {"smiles": "CS(=O)(=O)N(CC(=O)NCC1CCCO1)c1cc(Cl)cc(Cl)c1", "note": "(stereo not drawn)", "hERG current change (%, negative = inhibition) at 10uM": 2.03},
      {"smiles": "Cc1ccc(CSCc2ccc(C(=O)NCC3CCCO3)o2)cc1", "note": "(stereo not drawn)", "hERG current change (%, negative = inhibition) at 10uM": -28.8},
      {"smiles": "COc1ccc(OCC(=O)N2CCN(C(=O)c3cccc4ccccc34)CC2)cc1", "hERG current change (%, negative = inhibition) at 10uM": -22},
      {"smiles": "O=S(=O)(c1ccc(N2CCCC2)nc1)N1CCCC1", "hERG current change (%, negative = inhibition) at 10uM": 8.29},
      {"smiles": "O=C(NNC(=O)C1CC=CCC1)c1cccc(Br)c1", "note": "(stereo not drawn)", "hERG current change (%, negative = inhibition) at 10uM": 16.4},
      {"smiles": "CCOc1ccc(S(=O)(=O)N2CCCC2)cc1", "hERG current change (%, negative = inhibition) at 10uM": 3.2},
      {"smiles": "CC1CC(OCC(O)CN2CCCCC2C)CC(C)(C)C1.Cl", "note": "(stereo not drawn)", "hERG current change (%, negative = inhibition) at 10uM": -25.8},
      {"smiles": "Cc1c(OCC(=O)N(C)C)ccc2c3c(c(=O)oc12)CCCCC3", "hERG current change (%, negative = inhibition) at 10uM": -11.5},
      {"smiles": "O=C(NCc1ccccc1)C1(c2cccc(F)c2)CCCC1", "hERG current change (%, negative = inhibition) at 10uM": 4.62},
      {"smiles": "CCCc1cc(C(=O)Nc2ccc(C(C)=O)cc2)no1", "hERG current change (%, negative = inhibition) at 10uM": 1.35},
      {"smiles": "COC(CNC(=O)c1cc(Sc2nnc(C)s2)nc2ccccc12)OC", "hERG current change (%, negative = inhibition) at 10uM": -5.35},
      {"smiles": "NS(=O)(=O)c1cnccc1Nc1cccc(F)c1", "hERG current change (%, negative = inhibition) at 10uM": 11.2},
      {"smiles": "CCC(=O)Nc1nnc(S(=O)(=O)N(CC)c2ccc(OC)cc2)s1", "hERG current change (%, negative = inhibition) at 10uM": 25.5},
      {"smiles": "O=C1CN(S(=O)(=O)c2cc(Cl)ccc2Cl)CCN1", "hERG current change (%, negative = inhibition) at 10uM": 8.51},
      {"smiles": "COc1ccc(-c2noc(CN3CCOCC3)n2)cc1OC", "hERG current change (%, negative = inhibition) at 10uM": -0.62},
      {"smiles": "COc1ccc(NS(=O)(=O)c2cc(NC(=O)c3cnc(C)cn3)ccc2N2CCCC2)cc1", "hERG current change (%, negative = inhibition) at 10uM": -1.61},
      {"smiles": "O=C(c1ccco1)N1CCN(C2CC(=O)N(c3ccccc3)C2=O)CC1", "note": "(stereo not drawn)", "hERG current change (%, negative = inhibition) at 10uM": 8.94},
      {"smiles": "CCOC(=O)c1sc(NC(=O)CCN2CCOCC2)c(C(=O)OCC)c1C", "hERG current change (%, negative = inhibition) at 10uM": -2.58},
      {"smiles": "CCOC(=O)C1CCCN(c2c(NCCCN3CCCC(C)C3)c(=O)c2=O)C1", "note": "(stereo not drawn)", "hERG current change (%, negative = inhibition) at 10uM": 6.57},
      {"smiles": "Cc1ccc(S(=O)(=O)N2CCN(C3CCN(Cc4ccccc4)CC3)CC2)cc1.O=C(O)C(=O)O", "hERG current change (%, negative = inhibition) at 10uM": -76.6},
      {"smiles": "Cc1nc(NCc2ccco2)c2oc3ccccc3c2n1", "hERG current change (%, negative = inhibition) at 10uM": -29.8},
      {"smiles": "CC(C)(C)c1cc[n+](C2=C([O-])c3ccccc3C(=O)/C2=N\\S(=O)(=O)c2cccs2)cc1", "hERG current change (%, negative = inhibition) at 10uM": -44},
      {"smiles": "CCOC(=O)c1c(C)[nH]c(C)c1S(=O)(=O)NCC(=O)Nc1ccccn1", "hERG current change (%, negative = inhibition) at 10uM": 17.9},
      {"smiles": "Cc1ccc(-c2csc(C3=C(O)CN(NC(=O)c4ccco4)C3=N)n2)cc1", "hERG current change (%, negative = inhibition) at 10uM": 11.1},
      {"smiles": "Cc1nnc(SCC(=O)c2ccc(Br)cc2)s1", "hERG current change (%, negative = inhibition) at 10uM": -4.08},
      {"smiles": "O=C(COc1ccc(Cl)cc1)NC1CC1", "hERG current change (%, negative = inhibition) at 10uM": 5.47},
      {"smiles": "COC(=O)c1cc(Cl)c(NC(=O)c2ccc(F)cc2)cc1OC", "hERG current change (%, negative = inhibition) at 10uM": -2.56},
      {"smiles": "COc1ccc(-c2nn(-c3ccccc3)cc2/C=C/C(=O)OCC(=O)Nc2ccc(C#N)cc2)cc1", "hERG current change (%, negative = inhibition) at 10uM": 6.33},
      {"smiles": "O=C(NCCc1ccccc1)c1cccc(N2CCCC2=O)c1", "hERG current change (%, negative = inhibition) at 10uM": 2.77},
      {"smiles": "CCN(CC)CCOC(=O)c1ccc(NC(=O)c2cccc(C)c2[N+](=O)[O-])cc1", "hERG current change (%, negative = inhibition) at 10uM": -20.8},
      {"smiles": "COc1cccc(C2C(C(=O)c3ccc(C)o3)=C(O)C(=O)N2CCN2CCOCC2)c1OC", "note": "(stereo not drawn)", "hERG current change (%, negative = inhibition) at 10uM": 4.82},
      {"smiles": "COc1ccc2nc(C)cc(SCC(=O)N/N=C/c3ccccc3)c2c1", "hERG current change (%, negative = inhibition) at 10uM": 4.1},
      {"smiles": "O=c1c2c(-c3cccs3)csc2ncn1/N=C/c1ccc(OC(F)F)cc1", "hERG current change (%, negative = inhibition) at 10uM": -5.38},
      {"smiles": "O=C(c1ccc(=O)oc1)N1CCOCC1", "hERG current change (%, negative = inhibition) at 10uM": 18.7},
      {"smiles": "C=CCC(=O)N1CCC(n2nccc2NC(=O)CCOc2ccccc2)CC1", "hERG current change (%, negative = inhibition) at 10uM": 14.2},
      {"smiles": "O=C(NCc1nc2ccccc2[nH]1)C1=C[C@H](c2ccc(C(F)(F)F)cc2)C[C@H](OCCCCO)O1", "hERG current change (%, negative = inhibition) at 10uM": -40.4},
      {"smiles": "Cc1cc(C)nc(-n2cc(C(=O)c3cc(F)ccc3O)cn2)n1", "hERG current change (%, negative = inhibition) at 10uM": 9.85},
      {"smiles": "Cc1nn(Cc2ccc([N+](=O)[O-])cc2)c(=O)n1-c1ccccc1Cl", "hERG current change (%, negative = inhibition) at 10uM": -17.1}
    ]}
  ]
}
